Assay results reported in the supplement of paper PMC11348887.
Structures can show the parent of a compound that is named as a salt. The list shows a part of the results. Rule as the data show it: active = -2 or less and inactive = the rest. Single values are uncertain, as repeats are few or missing.

The compounds below were run on hPSC-derived cortical neurons (WA09) (assay: nuclei number (viability) z-score; higher = more surviving cells). Settings: 5 µM; treatment: days 7-14 after plating, readout day 21.
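Also: nuclei counted from DAPI counterstain by automated high-content image analysis, four fields per well at ×20 in 384-well plates, with sequential b-score then z-score normalization.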

Row | SMILES | nuclei number (z-score)
1 | O=C(O)CCCCC(CCSCc1ccccc1)SCc1ccccc1 (stereo unspecified) | inactive: 0.455
2 | O=c1c(-c2ccc(O)cc2)coc2cc(O)ccc12 [Daidzein] | inactive: 1.28
3 | C[C@H]1O[C@@H](n2cc(F)c(=O)[nH]c2=O)[C@H](O)[C@@H]1O [Doxifluridine] | inactive: 6.17
4 | CC(C)(C)c1nc(-c2cccc(NS(=O)(=O)c3c(F)cccc3F)c2F)c(-c2ccnc(N)n2)s1 | inactive: 0.471
5 | COc1cccc(Nc2c(C(N)=O)cnc3c(C)cc(S(=O)(=O)c4cccc(C(=O)N(C)C)c4)cc23)c1 | inactive: -1.05
6 | Nc1c(CC(=O)O)cccc1C(=O)c1ccc(Br)cc1 [Bromfenac Sodium] | inactive: 0.274
7 | COc1cc2c(cc1OCCCN1CCCC1)N=C(N)C21CCC1 | inactive: 0.768
8 | CC(=O)CCCCn1c(=O)c2c(ncn2C)n(C)c1=O [Pentoxifylline] | inactive: -0.628
9 | CC(C)(C)c1ccc(C(=O)CCCN2CCC(OC(c3ccccc3)c3ccccc3)CC2)cc1 [Ebastine] | active: -5.25
10 | O=c1ccn([C@@H]2O[C@H](CO)[C@@H](O)[C@H]2O)c(=O)[nH]1 [Uridine] | inactive: -0.943
11 | CC(C)n1c(/C=C/C(O)CC(O)CC(=O)O)c(-c2ccc(F)cc2)c2ccccc21 (stereo unspecified) [Fluvastatin Sodium] | inactive: -0.564
12 | CCCCNc1cc(C(=O)O)cc(S(N)(=O)=O)c1Oc1ccccc1 [Bumetanide] | inactive: 0.0772
13 | C[C@H](Cn1cnc2c(N)ncnc21)OCP(=O)(O)O [Tenofovir] | inactive: 0.953
14 | COC(=O)Nc1ccc(-c2nc(N3CCOCC3)c3cnn(C4CCN(C(=O)OC)CC4)c3n2)cc1 | inactive: -0.264
15 | N.N.O=C([O-])C[O-].[Pt+2] [Nedaplatin] | inactive: -1.62
16 | COC(=O)N[C@H](C(=O)N[C@@H](Cc1ccccc1)[C@@H](O)CN(Cc1ccc(-c2ccccn2)cc1)NC(=O)[C@@H](NC(=O)OC)C(C)(C)C)C(C)(C)C [Atazanavir Sulfate] | inactive: 0.561
17 | COC(=O)N[C@H](C(=O)N[C@@H](Cc1ccccc1)[C@@H](O)CN(Cc1ccc(-c2ccccn2)cc1)NC(=O)[C@@H](NC(=O)OC)C(C)(C)C)C(C)(C)C [Atazanavir] | inactive: -0.12
18 | CNC[C@H](O)[C@@H](O)[C@H](O)[C@H](O)CO [Meglumine] | inactive: 0.211
19 | NCCCC(O)(P(=O)(O)O)P(=O)(O)O [Alendronate sodium trihydrate] | inactive: -0.125
20 | NC(=O)OCC(COC(N)=O)c1ccccc1 [Felbamate] | inactive: 0.0224
21 | CCC[S+]([O-])c1ccc2[nH]c(NC(=O)OC)nc2c1 (stereo unspecified) [Albendazole Oxide] | inactive: 1.03
22 | Cc1ccnc(NS(=O)(=O)c2ccc(N)cc2)n1 [Sulfamerazine] | inactive: -0.527
23 | OC(CC1c2ccccc2-c2cncn21)C1CCCCC1 (stereo unspecified) | inactive: 0.0962
24 | COc1ccc(C[C@H](N)C(=O)N[C@H]2[C@@H](O)[C@H](n3cnc4c(N(C)C)ncnc43)O[C@@H]2CO)cc1 [Puromycin 2HCl] | active: -7.97

Row | SMILES | nuclei number (z-score)
25 | [O-][n+]1cccc(CO)c1 [Mepiroxol] | inactive: 0.542
26 | CC(=O)O[C@H]1C[C@@]2(C)[C@@H](C[C@@H](O)[C@H]3[C@@]4(C)CC[C@@H](O)[C@@H](C)[C@@H]4CC[C@@]32C)/C1=C(\CCC=C(C)C)C(=O)O [Fusidate Sodium] | inactive: 0.106
27 | O=C(O)Cc1cccc(OCCCN(Cc2cccc(C(F)(F)F)c2Cl)CC(c2ccccc2)c2ccccc2)c1 | inactive: -0.375
28 | CC(=O)N[C@@H](CS)C(=O)O [Acetylcysteine] | inactive: -0.805
29 | C[C@]1(c2nc3c(C(N)=O)cccc3[nH]2)CCCN1 [Veliparib (ABT-888)] | inactive: 0.732
30 | CN1CCN(c2ccc(Nc3ncc4cc(C#N)c(=O)n(C5CCCC5)c4n3)cc2)CC1 | inactive: -1.57
31 | O=c1cc(-c2ccccc2)oc2cc(O)c(O)c(O)c12 [Baicalein] | inactive: -0.0599
32 | COc1cc(C2Oc3cc([C@H]4Oc5cc(O)cc(O)c5C(=O)[C@@H]4O)ccc3OC2CO)ccc1O (stereo partly specified) [Silymarin] | inactive: 5.88
33 | COc1cc(C2Oc3cc([C@H]4Oc5cc(O)cc(O)c5C(=O)[C@@H]4O)ccc3OC2CO)ccc1O (stereo partly specified) [Silibinin] | inactive: 0.585
34 | Clc1ccc(C(Cn2ccnc2)OCc2ccc(Sc3ccccc3)cc2)c(Cl)c1 (stereo unspecified) [Fenticonazole Nitrate] | active: -2.48
35 | CC[C@H](C)C(=O)O[C@H]1C[C@@H](C)C=C2C=C[C@H](C)[C@H](CC[C@@H]3C[C@@H](O)CC(=O)O3)[C@H]21 [Lovastatin] | inactive: -0.859
36 | CCN(CC)CCOC(=O)c1ccc(N)cc1 [Procaine HCl] | inactive: -0.013
37 | CCN(CC)CCOC(=O)c1ccc(N)cc1 [Procaine] | inactive: -0.452
38 | O=C1CCC[C@@H]2[C@H]3CCC[N+]4([O-])CCC[C@@H](CN12)[C@@H]34 (stereo partly specified) [Oxymatrine] | inactive: 1.44
39 | COc1cccc2cc(-c3nc([C@H]4CC[C@H](C(=O)O)CC4)n4ncnc(N)c34)[nH]c12 | inactive: -0.31
40 | CC1=C(C(=O)O)N2C(=O)[C@@H](NC(=O)[C@H](N)C3=CCC=CC3)[C@H]2SC1 [Cefradine] | inactive: 0.95
41 | N[C@@H](CCC(=O)N[C@@H](CS)C(=O)NCC(=O)O)C(=O)O [Glutathione] | inactive: 2.18
42 | Cc1ccc(NCCCc2ccccc2)c(N)c1 | inactive: -0.165
43 | C=CC(=O)Nc1cc(Nc2nccc(-c3cn(C)c4ccccc34)n2)c(OC)cc1N(C)CCN(C)C | active: -4.68
44 | C#Cc1cccc(Nc2ncnc3cc4c(cc23)OCCOCCOCCO4)c1 [Icotinib] | inactive: 1.94
45 | C=CC(=O)Nc1cc(Nc2nccc(-c3c[nH]c4ccccc34)n2)c(OC)cc1N(C)CCN(C)C | active: -3.75
46 | Cc1ncc(CO)c(CO)c1O [Pyridoxine HCl] | inactive: 0.218
47 | O=C(O)c1ccc(-c2c[nH]c3ncc(-c4ccccc4)cc23)cc1C1CCCC1 | inactive: 0.264
48 | CC1(C)[C@H](C(=O)O)N2C(=O)C[C@H]2S1(=O)=O [Sulbactam] | inactive: -0.206

Row | SMILES | nuclei number (z-score)
49 | CC1(C)[C@H](C(=O)O)N2C(=O)C[C@H]2S1(=O)=O [Sulbactam sodium] | inactive: 0.034
50 | N=C(N)NS(=O)(=O)c1ccc(N)cc1 [Sulfaguanidine] | inactive: 0.0335
51 | COc1ccc2ccc(=O)oc2c1CC=C(C)C [Osthole] | inactive: -0.131
52 | O=C(Nc1nc2cccc(-c3ccc(CN4CCS(=O)(=O)CC4)cc3)n2n1)C1CC1 [Filgotinib (GLPG0634)] | inactive: 1.65
53 | CNS(=O)(=O)CCc1ccc2[nH]cc(C3CCN(C)CC3)c2c1 [Naratriptan] | inactive: -1.02
54 | CC(=O)Oc1ccccc1C(=O)O [Aspirin] | inactive: 0.164
55 | Nc1nc(NC2CC2)cc(-c2cccc(Cl)c2Cl)n1 | inactive: -1.65
56 | CC1=C(/C=C/C(C)=C/C=C/C(C)=C/C(=O)O)C(C)(C)CCC1 [Tretinoin] | inactive: 0.93
57 | CNC(=O)CN(CCN(CCN(CC(=O)[O-])CC(=O)NC)CC(=O)[O-])CC(=O)[O-].O.[Gd+3] [Gadodiamide Hydrate] | inactive: -0.921
58 | C[C@]12CC[C@H](O)CC1=CC[C@@H]1[C@@H]2CC[C@]2(C)C(n3cnc4ccccc43)=CC[C@@H]12 [Galeterone] | inactive: 3
59 | NC(=O)c1nc(F)cnc1O [Favipiravir (T-705)] | inactive: -0.0261
60 | N=C(N)Nc1ccc(C(=O)Oc2ccc3cc(C(=N)N)ccc3c2)cc1 [Nafamostat Mesylate] | inactive: 0.958
61 | O=C(NO)c1cccc(C(=O)NCCc2ccccc2)c1 | inactive: -0.0927
62 | COc1ncc(-c2cc(-c3ncc(CN4C[C@@H](C)O[C@@H](C)C4)o3)c3cn[nH]c3c2)cc1NS(C)(=O)=O | inactive: 0.19
63 | CC(C)n1nc(-c2ccc3oc(N)nc3c2)c2c(N)ncnc21 | active: -2.37
64 | O=C(O)c1cc(C(F)(F)F)ccc1N1CC[C@H](OCc2ccccn2)C1 | inactive: 0.278
65 | CC(=O)Nc1nc2c(Oc3cc(-c4ccc(C(F)(F)F)cc4)ncn3)cccc2s1 | inactive: 0.54
66 | CN1C[C@@H]2C[C@H]1CN2c1cc2c(cc1F)c(=O)c(C(=O)O)cn2C1CC1 [Danofloxacin Mesylate] | inactive: -0.423
67 | N[C@@H](Cc1c[nH]c2ccc(O)cc12)C(=O)O [5-hydroxytryptophan (5-HTP)] | inactive: 0.427
68 | CC#CC(=O)N1CCC[C@H]1c1nc(-c2ccc(C(=O)Nc3ccccn3)cc2)c2c(N)nccn12 [Acalabrutinib (ACP-196)] | inactive: 3.25
69 | N#CSc1cc(SC#N)c(N)nc1N | inactive: -0.6
70 | CCCCCOc1ccc(-c2cc(-c3ccc(C(=O)N[C@H]4C[C@@H](O)[C@@H](O)NC(=O)[C@@H]5[C@@H](O)[C@@H](C)CN5C(=O)[C@H]([C@H](O)CC(N)=O)NC(=O)[C@H]([C@H](O)[C@@H](O)c5ccc(O)c(OS(=O)(=O)O)c5)NC(=O)[C@@H]5C[C@@H](O)CN5C(=O)[C@H]([C@@H](C)O)NC4=O)cc3)no2)cc1 [Micafungin Sodium] | inactive: 0.618
71 | O=C(O)/C=C/c1ccc(O)c(O)c1 [Caffeic Acid] | inactive: -0.637
